Laboratory results from US20230192795A1 (Hoffmann-La Roche, published 2023).

B1: PD1-IL7wt (other)
light: DIVMTQSPDSLAVSLGERATINCKASESVDTSDNSFIHWYQQKPGQSPKLLIYRSSTLESGVPDRFSGSGSGTDFTLTISSLQAEDVAVYYCQQNYDVPWTFGQGTKVEIKRTVAAPSVFIFPPSDEQLKSGTASVVCLLNNFYPREAKVQWKVDNALQSGNSQESVTEQDSKDSTYSLSSTLTLSKADYEKHKVYACEVTHQGLSSPVTKSFNRGEC
heavy 1: EVQLLESGGGLVQPGGSLRLSCAASGFSFSSYTMSWVRQAPGKGLEWVATISGGGRDIYYPDSVKGRFTISRDNSKNTLYLQMNSLRAEDTAVYYCVLLTGRVYFALDSWGQGTLVTVSSASTKGPSVFPLAPSSKSTSGGTAALGCLVKDYFPEPVTVSWNSGALTSGVHTFPAVLQSSGLYSLSSVVTVPSSSLGTQTYICNVNHKPSNTKVDKKVEPKSCDKTHTCPPCPAPEAAGGPSVFLFPPKPKDTLMISRTPEVTCVVVDVSHEDPEVKFNWYVDGVEVHNAKTKPREEQYNSTYRVVSVLTVLHQDWLNGKEYKCKVSNKALGAPIEKTISKAKGQPREPQVCTLPPSRDELTKNQVSLSCAVKGFYPSDIAVEWESNGQPENNYKTTPPVLDSDGSFFLVSKLTVDKSRWQQGNVFSCSVMHEALHNHYTQKSLSLSPGK
heavy 2: EVQLLESGGGLVQPGGSLRLSCAASGFSFSSYTMSWVRQAPGKGLEWVATISGGGRDIYYPDSVKGRFTISRDNSKNTLYLQMNSLRAEDTAVYYCVLLTGRVYFALDSWGQGTLVTVSSASTKGPSVFPLAPSSKSTSGGTAALGCLVKDYFPEPVTVSWNSGALTSGVHTFPAVLQSSGLYSLSSVVTVPSSSLGTQTYICNVNHKPSNTKVDKKV[human IgG1 Fc with changes left out]GGGGSGGGGSGGGGSDCDIEGKDGKQYESVLMVSIDQLLDSMKEIGSNCLNNEFNFFKRHICDANKEGMFLFRAARKLRQFLKMNSTGDFDLHLLKVSEGTTILLNCTGQVKGRKPAALGEAQPTKSLEENKSLKEQKKLNDLCFLKRLLQEIKTCWNKILMGTKEH
notes: also called PDI-IL7wt; PD1-ILwt
B2: PD1-IL7-VAR18 (K81E) (other)
light: B1 light
heavy 1: B1 heavy 1
heavy 2: EVQLLESGGGLVQPGGSLRLSCAASGFSFSSYTMSWVRQAPGKGLEWVATISGGGRDIYYPDSVKGRFTISRDNSKNTLYLQMNSLRAEDTAVYYCVLLTGRVYFALDSWGQGTLVTVSSASTKGPSVFPLAPSSKSTSGGTAALGCLVKDYFPEPVTVSWNSGALTSGVHTFPAVLQSSGLYSLSSVVTVPSSSLGTQTYICNVNHKPSNTKVDKKV[human IgG1 Fc with changes left out]GGGGSGGGGSGGGGSDCDIEGKDGKQYESVLMVSIDQLLDSMKEIGSNCLNNEFNFFKRHICDANKEGMFLFRAARKLRQFLKMNSTGDFDLHLLEVSEGTTILLNCTGQVKGRKPAALGEAQPTKSLEENKSLKEQKKLNDLCFLKRLLQEIKTCWNKILMGTKEH
notes: Format as m1; IL-7 with K81E; also called PD1-IL7 -K81E (Var18); PD1-IL7v variant 18
B3: PD1-IL7-VAR21 (G85E) (other)
light: B1 light
heavy 1: B1 heavy 1
heavy 2: EVQLLESGGGLVQPGGSLRLSCAASGFSFSSYTMSWVRQAPGKGLEWVATISGGGRDIYYPDSVKGRFTISRDNSKNTLYLQMNSLRAEDTAVYYCVLLTGRVYFALDSWGQGTLVTVSSASTKGPSVFPLAPSSKSTSGGTAALGCLVKDYFPEPVTVSWNSGALTSGVHTFPAVLQSSGLYSLSSVVTVPSSSLGTQTYICNVNHKPSNTKVDKKV[human IgG1 Fc with changes left out]GGGGSGGGGSGGGGSDCDIEGKDGKQYESVLMVSIDQLLDSMKEIGSNCLNNEFNFFKRHICDANKEGMFLFRAARKLRQFLKMNSTGDFDLHLLKVSEETTILLNCTGQVKGRKPAALGEAQPTKSLEENKSLKEQKKLNDLCFLKRLLQEIKTCWNKILMGTKEH
notes: Format as m1; IL-7 with G85E; also called PD1-IL7 -G85E (Var21); PD1-IL7v variant 21

Key:
[1] = biological target: T1, Human IL7Ra-IL2Rγ-Fc heterodimer (human, biotin on the avi tag); test: SPR, captured from supernatant, 800 nM receptor-Fc single injection
T1 construct: Extracellular domains of IL-7Ralpha and IL-2Rgamma fused to Fc knob and Fc hole; also called hu IL7Ra-IL2Rγ-Fc avi biotin; human IL7Ra-IL2Rg-Fc biotin
In short: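 PDI-IL7 constructs were captured from supernatant (100 nM, 120 s) on anti-Fc CM5 surfaces in HBS-EP+ pH 7.4; 800 nM HEK-produced extracellular-domain receptor-Fc heterodimer was injected once (240 s association, 360 s dissociation). Binding/capture ratio recorded; koff from single-curve fit of dissociation, reference-subtracted.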

[2] = biological target: T1, Human IL7Ra-IL2Rγ-Fc heterodimer; test: SPR, captured via anti-P329G, receptor-Fc 2.34-300 nM, 1:1 fit
Protocol: (§1) Surface Plasmon Resonance (SPR) experiments were performed on a Biacore 8 K with HBS-EP + 1 mg/ml BSA as running buffer. Anti-P329G Fc specific antibody (Roche internal) was directly immobilized by amine coupling on a C1 chip (Cytiva). The PD1-IL7 constructs were captured for 140 s at 5 nM. […] The dissociation phase was monitored for 800 s and triggered by switching from the sample solution to running buffer. The chip surface was regenerated after every cycle using two injections of 10 mM glycine pH 2 for 60 sec. Bulk refractive index differences were corrected for by subtracting the response obtained on the reference flow cell (containing immobilized anti P329G Fc specific IgG only). The affinity constants were derived from the kinetic rate constants by fitting to a 1:1 Langmuir binding using the Biacore evaluation software (Cytiva).
(§2) Four IL7 single variants and two IL7 double variants were compared to IL7 wild-type for binding to human IL7 receptor (Table 17). The affinity of the IL7 variants to the IL7 receptor was determined using the recombinant heterodimer of the extracellular domains of the IL7 receptor alpha chain and the common IL2 receptor gamma chain.

[3] = biological target: T2, murine IL7Ra-IL2Rg-Fc biotin (murine, UniProt P16872 21-239; P34902 23-263); test: as above
T2 construct: extracellular domain; Heterodimer of the ECD of IL7Ra and IL2Rg chains fused to an Fc; also called murine IL7Ralpha-IL2Rgamma-Fc heterodimer; murine IL7 receptor; not shown: Fc part and avi tag; Fc part
T2 sequence (looked up) 1: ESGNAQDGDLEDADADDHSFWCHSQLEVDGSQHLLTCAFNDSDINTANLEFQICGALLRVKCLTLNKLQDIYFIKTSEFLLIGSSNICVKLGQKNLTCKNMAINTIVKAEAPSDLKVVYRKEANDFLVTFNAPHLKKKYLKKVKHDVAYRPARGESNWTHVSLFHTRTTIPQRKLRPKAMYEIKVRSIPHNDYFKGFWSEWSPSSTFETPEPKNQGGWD
T2 sequence (looked up) 2: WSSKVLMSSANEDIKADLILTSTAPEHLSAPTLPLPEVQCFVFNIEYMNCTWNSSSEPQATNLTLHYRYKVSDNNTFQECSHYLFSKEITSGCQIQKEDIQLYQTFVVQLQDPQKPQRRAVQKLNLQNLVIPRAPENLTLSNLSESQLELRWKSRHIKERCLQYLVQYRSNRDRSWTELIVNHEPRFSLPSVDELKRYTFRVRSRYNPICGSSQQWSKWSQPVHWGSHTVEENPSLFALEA
Protocol: as §1
as §2, with “murine” for “human”, “19).” for “17).”

[4] = biological target: T3, IL-7Rα/IL-2Rγ on human T cells (human, UniProt P16871 21-459; P31785 23-369); test: cell-based or functional assay
T3 sequence (looked up) 1: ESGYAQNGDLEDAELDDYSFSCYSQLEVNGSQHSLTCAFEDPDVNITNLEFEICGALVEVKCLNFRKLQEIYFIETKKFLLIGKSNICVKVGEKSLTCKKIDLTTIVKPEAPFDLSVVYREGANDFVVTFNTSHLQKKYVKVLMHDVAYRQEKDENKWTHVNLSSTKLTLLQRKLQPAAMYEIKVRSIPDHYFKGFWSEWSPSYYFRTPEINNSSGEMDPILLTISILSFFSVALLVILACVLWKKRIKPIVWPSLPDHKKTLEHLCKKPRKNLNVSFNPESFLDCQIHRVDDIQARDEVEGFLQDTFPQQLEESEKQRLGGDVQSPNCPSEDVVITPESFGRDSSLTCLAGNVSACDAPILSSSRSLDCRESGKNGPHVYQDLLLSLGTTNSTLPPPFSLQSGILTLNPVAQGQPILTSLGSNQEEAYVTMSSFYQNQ
T3 sequence (looked up) 2: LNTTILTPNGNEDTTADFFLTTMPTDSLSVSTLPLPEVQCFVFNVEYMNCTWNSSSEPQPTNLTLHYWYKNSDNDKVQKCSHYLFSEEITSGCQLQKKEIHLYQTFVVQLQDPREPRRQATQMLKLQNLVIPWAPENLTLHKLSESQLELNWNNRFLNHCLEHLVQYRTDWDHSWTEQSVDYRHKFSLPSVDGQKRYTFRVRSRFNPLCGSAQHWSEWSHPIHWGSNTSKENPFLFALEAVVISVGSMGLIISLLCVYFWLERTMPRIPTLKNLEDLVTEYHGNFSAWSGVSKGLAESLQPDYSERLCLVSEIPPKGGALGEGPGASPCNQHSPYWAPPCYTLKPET

human PD-1 on T cells = human PD-1 on T cells (human, UniProt Q15116 25-288); test: cell-based or functional assay
Sequence of human PD-1 on T cells (Q15116 25-288 limits assumed): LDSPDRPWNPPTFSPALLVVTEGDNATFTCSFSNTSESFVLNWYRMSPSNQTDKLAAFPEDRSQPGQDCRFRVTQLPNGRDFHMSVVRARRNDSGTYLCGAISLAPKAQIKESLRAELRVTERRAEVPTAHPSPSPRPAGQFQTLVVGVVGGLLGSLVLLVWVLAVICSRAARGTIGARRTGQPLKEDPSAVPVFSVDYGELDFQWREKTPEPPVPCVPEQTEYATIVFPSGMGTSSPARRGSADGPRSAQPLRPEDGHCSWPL

Row | Binder | koff [1] [s⁻¹] | Kd [2] [nM] | koff [2] [s⁻¹] | kon [2] [M⁻¹ s⁻¹] | Kd [3] [nM] | koff [3] [s⁻¹] | kon [3] [M⁻¹ s⁻¹] | EC50 [PD1+]/ EC50[PD1-IL7wt] [4] [fold] | STAT5-P AUC PD1+ [4] | STAT5-P AUC PD1 blocked [4] | EC50 [PD1blocked]/ EC50 [PD1+] (human PD-1 on T cells) [fold]
1 | B1 | 0.000446 | 0.768 | 0.000313 | 444000 | 1.76 | 0.000749 | 426000 | 1 | 139 | 106 | 2.1
2 | B2 | 0.00081 | 2.26 | 0.000719 | 320000 | 8.88 | 0.00315 | 347000 | 8.3 | 80.8 | 34.3 | 22.8
3 | B3 | 0.0049 | 11.5 | 0.00313 | 273000 | 43 | 0.0169 | 395000 | 9.6 | 71.9 | 24.5 | 35.7
